The list shows a part of the results. Sequences were assembled here from the parent chain. Inactive controls read about 0.05.
B1: TEV protease; numbered along this chain (parent)
chain: MGESLFKGPRDYNPISSSICHLTNESDGHTTSLYGIGFGPFIITNKHLFRRNNGTLVVQSLHGVFKVKDTTTLQQHLVDGRDMIIIRMPKDFPPFPQKLKFREPQREERICLVTTNFQTKSMSSMVSDTSCTFPSGDGIFWKHWIQTKDGQCGSPLVSTRDGFIVGIHSASNFTNTNNYFTSVPKNFMELLTNQEAQQWVSGWRLNADSVLWGGHKVFMVKPEEPFQPVKEATQL

Variants of: B1
Experiment: raw area under fraction-flipped curve 0-4 h after induction (AUC4h, not background-subtracted), DNA-recorder readout of cleavage of the substrate (dimensionless); higher = more cleavage of the substrate by the protease variant
Settings: temperature: 34 °C; time window: 0-4 h after rhamnose induction
Protocol: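 In vivo DNA recorder in E. coli TOP10(DE3) ΔrhaA at 34 °C. Each TEVp single-site mutant (parent TEVp 0) is paired with a single-site variant of the 7-mer TEVs (canonical ENLYFQ|S). The substrate sits between flexible linkers in a Bxb1-sfGFP-TEVs-SsrA fusion, so cleavage stabilises Bxb1 and speeds flipping of a recombination array, read by NGS. The value is the raw area under the fraction-flipped curve over 0-4 h after rhamnose induction (AUC4h), with ≥20 reads per time point. It is not background-subtracted; inactive controls average about 0.047.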
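Note: Bxb1 expression induced with 0.2% (w/v) L-rhamnose at OD600 near 0.5, cultures sampled hourly, flipped fraction per protease–substrate barcode pair counted by paired-end Illumina sequencing.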

Variant	area with substrate EALYFQS	area with substrate ECLYFQS	area with substrate EDLYFQS	area with substrate EELYFQS	area with substrate EGLYFQS	area with substrate EILYFQS	area with substrate EKLYFQS	area with substrate EMLYFQS	area with substrate EPLYFQS	area with substrate ERLYFQS	area with substrate ESLYFQS	area with substrate EVLYFQS	area with substrate EYLYFQS	area with substrate EHLYFQS	area with substrate ELLYFQS	area with substrate EQLYFQS	area with substrate ETLYFQS	area with substrate EWLYFQS	area with substrate EFLYFQS
N53M	0.108	0.106	0.0809	0.048	0.0944	0.0644	0.0661	0.0893	0.103	0.0881	0.0834	0.0802	0.0907	–	–	–	–	–	–
N53S	0.106	0.0854	0.173	0.139	0.0956	0.0948	0.098	0.0957	0.113	0.12	0.107	0.11	–	0.128	0.0779	0.121	–	–	–
N53V	0.0827	0.0803	0.0875	0.0853	–	–	–	0.0776	0.104	0.0838	0.0824	–	–	–	0.0839	–	0.0831	0.0502	–
G54Q	0.0783	0.0717	0.057	0.1	0.102	–	0.0697	0.0751	0.0709	0.0686	0.0603	0.0545	0.0712	0.0748	0.0847	0.074	0.0653	0.0665	0.0668
G54V	0.0742	0.0666	0.0656	0.132	0.0676	0.0639	0.053	0.102	0.062	–	0.0836	0.0627	0.0739	–	0.063	0.0705	0.0661	0.0499	–
T55S	0.122	0.113	0.129	0.13	0.0834	0.1	0.0757	0.1	–	0.11	0.107	0.109	–	0.109	–	0.102	0.117	0.108	–
Q59I	0.116	0.12	0.12	0.0913	–	0.0906	–	0.104	0.114	0.1	0.104	0.0863	–	–	0.0897	0.155	0.132	0.0837	0.102
S60H	0.124	0.149	0.125	0.142	0.144	–	0.0965	0.152	0.121	0.115	0.107	0.105	–	0.106	0.0803	0.113	0.11	–	–
S60K	0.105	0.0651	0.0945	0.105	0.0687	0.071	0.0726	0.0644	0.0991	0.08	0.108	–	–	–	–	–	0.118	–	–
L61H	0.118	0.11	0.119	0.129	0.0861	0.0939	0.115	0.107	0.176	–	0.0965	0.109	0.098	0.0639	0.109	0.12	0.129	0.102	–
L61W	0.101	0.0758	0.117	0.102	0.0731	0.105	0.0954	0.121	0.107	0.0863	0.0986	–	0.0887	–	0.0939	0.105	0.0826	0.0819	–
H62A	0.1	0.0867	0.118	–	–	–	–	0.0989	–	0.0848	0.0891	0.0919	0.0858	0.104	–	0.157	0.111	0.0965	0.105
F65G	0.105	0.0825	0.104	0.13	0.087	0.0951	0.0924	0.094	0.0874	0.0854	0.0986	0.0575	0.0905	0.0958	–	0.121	–	–	0.0686
F65L	0.0693	0.107	0.123	0.123	–	–	0.154	0.141	0.133	–	0.109	0.0795	0.0944	–	0.131	0.134	–	–	–
K66L	0.123	0.104	0.112	0.0774	–	0.0867	0.162	0.121	–	0.0997	0.125	0.1	0.0846	0.0898	0.0906	0.109	0.107	0.103	0.154
D69E	0.0978	0.136	0.105	0.0985	0.116	0.133	–	–	0.105	0.111	0.0954	0.0875	–	0.0923	0.0592	0.111	0.0856	0.121	–
T70E	0.0988	0.0677	0.0938	–	–	0.0718	0.0854	0.0966	0.0616	0.069	0.0077	0.0668	–	0.0503	0.0715	0.0805	0.0764	–	0.0708
T70I	0.0846	0.0755	0.0745	0.119	–	0.075	0.0814	0.0696	0.118	0.0057	0.0672	–	–	0.0813	0.0635	0.0713	–	–	–
T71E	0.103	0.0784	0.117	0.0955	0.0767	0.0613	0.0458	0.0913	0.0856	0.0811	0.083	0.0829	–	0.0963	–	0.106	0.102	0.0803	0.114
L73I	0.158	0.0925	0.118	0.0983	0.0781	–	0.123	0.118	–	–	0.0963	0.0771	–	–	0.0726	0.108	0.0977	0.0773	–
Q75F	0.0961	0.0829	0.118	0.122	0.115	0.078	0.0964	0.12	0.0991	0.0954	0.101	0.108	–	–	0.0957	0.118	0.0931	0.0903	–
Q75K	0.0741	0.0757	0.0862	0.0802	–	0.0551	0.0835	0.0805	0.0766	0.0688	0.0626	0.0448	0.0726	–	0.0765	0.0741	–	0.0673	0.0779
Q75R	0.0946	0.06	0.0676	0.0756	–	0.0231	0.0594	0.0509	0.0614	0.0622	0.0555	0.0683	0.0521	–	0.0611	0.0476	0.057	0.0669	–
H76R	0.104	0.0883	0.0835	0.111	–	0.0692	–	–	0.0668	0.0596	0.0743	0.0802	0.069	–	–	0.0793	0.0688	–	–

Reference: the supplement of paper PMC12217912
